The structures appear in SMILES notation. “And” between values parts separate entries of the source, which are not always exact repeats. Equal values may be shown once.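 Growth conditions: 96-well plates. Treatment: test compound, 48 hours, 5 concentrations. Analysis: linear interpolation between bracketing concentrations; unreached endpoints set to highest concentration. Here, GI50 denotes the concentration required for 50% inhibition of growth. At the TGI there is no net growth.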

In this test the test system is NCI-H322M lung. Put plainly: DTP human tumour cell line panel, 48 h.
For orientation: TGI means the concentration at which net growth stops. Low values mean greater sensitivity of the cells, high ones lower sensitivity of the cells. `O=C(CSC(=S)N1CCOCC1)Nc1nc2c(s1)CCCC2`: the TGI is > 100 µM.
As usually defined, the GI50 is the concentration at which growth is held to half of that of the control. `Oc1ccc(CCCCCCc2ccc(O)cc2)cc1`: the GI50 was 13.7 µM and the TGI came out at 27.5 µM.
Consider `CN(C)CCOc1ccc2c(c1)C/C(=C/c1ncc([N+](=O)[O-])n1C)C2=O`, for which the TGI was determined as 11.1 µM.
Take `CN(C)c1ccc(/C=C/C=C(/C#N)c2ccccc2)cc1`: the total growth inhibition concentration (TGI) was > 100 µM.
As for `OC1COC(n2c3ccc(Br)cc3c3ccc4c5ccccc5[nH]c4c32)C(O)C1O` (stereo unspecified), the concentration for total growth inhibition (TGI) stood at 16 µM.
For the compound `CCC(CC)n1c(C)nc2c1C(=O)c1ccccc1C2=O`, the total growth inhibition concentration (TGI) is > 100 µM.
Take `COc1cc2c(c(OC)c1OC)-c1ccc(SC)cc1[C@H](OC(=O)c1ccccc1)CC2`: the total growth inhibition concentration (TGI) was > 100 µM.
Take `CCCCN(Cc1ccc(F)cc1)c1ccc(CO)c(Cl)c1`: the GI50 was 13.6 µM and the TGI came to 27.2 µM.
With `CC(=O)c1cc([N+](=O)[O-])ccc1OCC(=O)O`, the TGI is > 100 µM.
For `COc1ccc2c3c1OC1c4[nH]c5ccccc5c4CC4(O)C(C2)N(C)CCC314` (stereo unspecified), the concentration for total growth inhibition (TGI) was 78.2 µM.
`CCN(Cc1ccccc1OC)c1ccc(CO)c(Cl)c1`: the GI50 was 9.36 µM and the concentration for total growth inhibition (TGI) is 23.2 µM.
Take `O=S1C2=C(Cc3ccccc3)C(Cc3ccccc3)=C1CCc1cccc(c1)CC2`: the TGI came to 31.5 µM.
On to `CC1(C)Oc2ccc3c(=O)cc(-c4ccc(F)cc4)oc3c2C1C(=O)O` (stereo unspecified), for which the TGI was > 100 µM.
With `Cc1cc(C(C#N)c2ccc(Cl)cc2)c(Cl)cc1NC(=O)c1cc(I)cc(I)c1O` (stereo unspecified), the GI50 was 4.13 µM and 12.4 µM; the TGI was 15 µM and 24.9 µM.
Consider `CC[C@H]1OC([C@H](O)C/C=C\C#C[Si](C)(C)C)C/C=C\C[C@H]1O[Si](C)(C)C(C)(C)C` (stereo partly specified), for which the TGI is > 100 µM.
Consider `COc1cc(-c2cn(-c3ccc(Cl)cc3)c(C)c2C(=O)C(F)(F)F)cc(OC)c1OC`, for which the GI50 was > 100 µM and the TGI was > 100 µM.
Consider `Cn1c2ccccc2c(=NNc2ccc(C(=O)O)cc2)c2ccccc21`, for which the TGI is 43.3 µM.
Consider `Cn1c(-c2cccs2)cc(-c2cccs2)c1-c1ccsc1`, for which the TGI was > 100 µM.
Same read-out and setting: the result for `COc1ccc(C2S/C(=C\c3ccc(O)cc3)C(=O)N2NC(=O)Cc2ccccc2)cc1` (stereo unspecified) reads > 100 µM.
With `CN(C)c1ccc2cc(-c3ccccc3F)c(N)nc2c1`, the GI50 is 5.1 µM and the TGI is 19.5 µM.
As for `CC(CNC(Cc1ccccc1)c1ccccc1)NC(Cc1ccccc1)c1ccccc1` (stereo unspecified), the GI50 is 2.88 µM and the TGI is 11.3 µM.
As to `Cc1ccc2c(n1)C(=O)c1ccccc1C2=O`, the TGI worked out at 64.9 µM.
Same read-out and setting: then `COCCOCCOC1=C(Cl)C(=O)c2c(O)ccc(O)c2C1=O`, with 26.7 µM; and `CC1(C)N=C(N)N=C(N)N1c1cccc(OCCOc2ccc([N+](=O)[O-])cc2)c1`, with > 100 µM.
Compound `Nc1nc(Cl)cc(Nc2cc(Cl)cc(Cl)c2)n1` showed a TGI of 35.9 µM.
`COc1cc(/C=C/C(=O)c2sc(Nc3ccccc3)nc2C)ccc1O`: the TGI is > 100 µM.
As for `Cn1ccnc1C(=O)/C=C/c1ccc(CC(=O)Nc2ccccc2)cc1`, the GI50 was 2.57 µM and the TGI turned out to be 6.33 µM.
`O=C(CN1CCN(c2ccccc2)CC1)N1CCc2c([nH]c3ccccc23)C1c1cccnc1` (stereo unspecified): the TGI was > 100 µM.
The compound `CC(C)=CCC/C(C)=C/CC/C(C)=C/CC/C(C)=C/CC/C(C)=C\CC/C(C)=C/CC/C(C)=C/CC/C(C)=C/Cc1cc(O)ccc1O` displayed a concentration for total growth inhibition (TGI) of 32.6 µM. This counts as double-digit micromolar.
As for `COC(=O)CNC(=O)[C@@H](OC)[C@@H]1Cc2cc3cc(OC4CC(OC5CC(O)C(O)C(C)O5)C(O)C(C)O4)c(C)c(O)c3c(O)c2C(=O)[C@H]1OC1CC(OC2CC(OC3CC(C)(O)C(O)C(C)O3)C(O)C(C)O2)C(O)C(C)O1` (stereo partly specified), the GI50 was 0.196 µM and the TGI is > 50 µM.
Take `O=C1/C(=C/c2ccc(O)cc2)COc2ccc(-c3ccccc3)cc21`: the GI50 was 6.65 µM and the TGI was 21.7 µM.
The like results for `CC(C)(C)c1ccc(S(=O)(=O)N[C@H]2CC[C@H]3[C@@H]4CCc5cc(OS(=O)(=O)O)ccc5[C@H]4CC[C@]23C)cc1` were, in that order, 4.68 µM and 16.9 µM.
Take `CCCCn1cnc2c(SC)ncnc21`: the TGI is > 100 µM.
Regarding `CN=S(=O)(c1ccccc1)c1ccccc1`, the TGI was > 100 µM.
For `COc1ccc(O)c(C#N)c1C#N`, the TGI is > 100 µM.
In the case of `C[Si](C)(OCCS(=O)(=O)O)C1S(=O)(=O)OCCOS1(=O)=O`, the TGI is > 100 µM.
For the compound `COC(=O)CCC12CCC(O1)c1ccccc12` (stereo unspecified), the TGI is > 100 µM.
`O=C1CC[C@@H](S(=O)(=O)c2ccccc2)[C@@H](/C=C/c2ccccc2)O1`: the TGI is > 100 µM.
Consider `CCC12CCCC(=O)N1C(CO)C(c1ccccc1)O2` (stereo unspecified), for which the TGI is > 100 µM.
As for `CCCCCCCCCc1cc(=O)c2ccc(O)cc2o1`, the TGI was > 100 µM.
`COc1cc([C@@H]2c3cc4c(cc3[C@@H](NC(=O)c3ccccc3)C3COC(=O)[C@@H]32)OCO4)cc(OC)c1O` (stereo partly specified): the TGI was > 100 µM.
With `Brc1ccccc1-c1ncc(-c2ccccc2)o1`, the TGI was > 100 µM.
`COc1ccc2c(c1)c1c(n2CCN2CCCCC2)-c2ccccc2CC1` showed a TGI of 45.3 µM.
Turning to `COc1ccc(-c2cc(-c3cc(OC)c(OC)c(OC)c3)cc(-c3cc4ccccc4oc3=O)n2)cc1`, the TGI came to 41.7 µM.
In the case of `CSc1ccc(/C=C2\N=C(c3ccccc3)N(c3nc4ccc(Sc5ccccc5)cc4[nH]3)C2=O)cc1`, the TGI is > 96.4 µM.
As for `COC(=O)c1c(C)cccc1CC1Cc2c(C)cccc2C1=O` (stereo unspecified), the TGI is > 100 µM.
Consider `Cc1cc(=O)oc2cc3c(cc12)Oc1ccccc1O3`, for which the TGI was > 100 µM.
In the case of `CCCCCCCCCCCCCC(=O)CBr`, the TGI is 36.1 µM. This lies in the double-digit micromolar range.
The same measure, in the same setting: then `c1ccc(CSc2nc(N3CCOCC3)c3cn[nH]c3n2)cc1`, with > 100 µM.
Regarding `Clc1nc(Cl)c2ncn(Cc3ccc(COc4cccc(OCc5ccc(Cn6cnc7c(Cl)nc(Cl)nc76)cc5)c4)cc3)c2n1`, the GI50 was 17.7 µM and the TGI was found to be 47.3 µM.
Take `COc1ccc2c3c(c(=O)n(C)c2c1OC)C=CC(C)(C)O3`: the TGI is > 100 µM.
The same measure, in the same setting: the result for `CCOC(=O)C(NC(=O)Nc1ccc(Cl)c(Cl)c1)C(F)(F)F` (stereo unspecified) reads > 100 µM.
With `C[C@@H]1CN(CC(=O)N2CC(C)(C)c3nc(CO)c(Cc4ccc(F)cc4)cc32)[C@@H](CN2CCOC[C@H]2C)CN1`, the GI50 is 35.6 µM and the TGI is > 100 µM.
Turning to `O=C(N/N=C\c1ccc2ccccc2c1)Nc1ccc([N+](=O)[O-])cc1`, the TGI is > 100 µM.
With `COc1cc2c(cc1OC)CC(N=[N+]=[N-])c1cc(OC)c(OC)cc1/C=C\2` (stereo unspecified), the TGI was > 100 µM.
On the same count and under the same terms, then `C(=C\C(SCc1ccccc1)SCc1ccccc1)/c1ccccc1`, with > 10 µM; and `O=C(CC(C(=O)c1ccoc1)c1ccco1)c1ccco1` (stereo unspecified), with > 100 µM; and `O=C1CCCCc2cccc(O)c21`, with > 100 µM.
`C1=C\CCCCN2C[C@H]3CCCC/C=C\CCCCN4CC[C@@H]([C@H](CCCCCC/1)C4)[C@H](C3)C2`: the concentration for total growth inhibition (TGI) turned out to be 4.99 µM.
Take `N/C(=N/n1c(=S)[nH]c2ccccc2c1=O)Nn1c(=S)[nH]c2ccccc2c1=O`: the TGI is > 100 µM.
Still for that read-out and setting: the result for `CC(C)=CCSC1CC2C(CC1(C)O)C2(C)C` (stereo unspecified) reads 30.1 µM and 28.9 µM.
The same measure, in the same setting: the result for `CCN(CC)C(=S)SS(=O)(=O)c1ccc([N+](=O)[O-])cc1` reads > 100 µM.
Take `O=C(CSCC(=O)N/N=C\c1ccc(-c2ccccc2)cc1)N/N=C\c1ccc(-c2ccccc2)cc1`: the TGI worked out at 55.2 µM.

(Values after PubChem BioAssay (NCI).)
